About 410 (8.5%) of roughly 4,800 compounds showed an effect of 50% or more. The list shows a part of the results.
Test system: Plasmodium falciparum
Experiment: Confirmatory screen in NF54 pLDH assay, in single point, at 2uM, 72h
Format: functional, Erythrocyte
Conditions: timepoint 72 hour

SMILES	% Inhibition [%]
CC[C@@H](CO)NCc1cc(Br)ccc1OC	-6
CC[n+]1c(C)sc2cc(-c3ccccc3)sc21	0
COC(=O)c1nc(NC(=O)C2(C)CCCC2)sc1C(C)C	-9
CCOC(=O)c1c(CN(C)C)n(-c2ccc(OC)cc2)c2ccc(Oc3nccc(Nc4ccc(C)cc4)c3C#N)cc12	3
O=S1(=O)CC[C@H](NS(=O)(=O)c2ccc3c(c2)OCCO3)C1	-16
COc1ccc(-c2nn3c(Cc4ccccn4)nnc3s2)cc1OC	14
CN(C)S(=O)(=O)N(CCN1CCCC1)[C@H]1CCN(C(=O)CCC2CCCC2)C1	12
COC1(C)CC(NC(=O)C(C(C)C)N2CCCS2(=O)=O)C1(C)C (configuration not stated)	-2
Cc1cc(NC(=O)CS(=O)(=O)Cc2c(C)noc2C)no1	-19
CC(C)(C)OC(=O)NC1CCC(N2C(=O)CCC2=O)CC1 (configuration not stated)	2
Cc1cc(=O)n2ncc(C(=O)NCc3cc(F)cc(F)c3)c2[nH]1	-18
O=C1CCCc2nc3[nH]n(-c4ccccc4)c(=O)c3cc21	13
Cc1cc(S(=O)(=O)N(C)Cc2ccco2)cc2c1NC(=O)C2(C)C	13
COc1cccc(CNCc2ccc3c(c2)OCO3)c1OCc1ccc(Cl)cc1Cl	10
Cc1cc(C)c2ccc3ccccc3c2n1	13
Cn1c(N)c(S(=O)(=O)N2CCN(c3ccccc3Cl)CC2)c(=O)n(C)c1=O	10
CC(C)c1cccc(CN2C(=O)N[C@]3(CC(C)(C)OC3(C)C)C2=O)n1	-15
O=C(Cn1nnc2ccccc21)N(Cc1cccnc1)C1(C(=O)Nc2ccc3c(c2)OCO3)CCCCC1	-3
COc1ccccc1OCc1nn2c([C@H]3CCCN(S(C)(=O)=O)C3)nnc2s1	5
Cc1n(CC(=O)c2ccccc2)c2ccccc2[n+]1CC(=O)c1ccccc1	66
CC(C)Cn1c(=O)c2sccc2n(CC(=O)N2CCCC2)c1=O	12
CCN(C(C)=O)c1ccc(Cl)cc1F	-19
CCC(=O)N1CCN(S(=O)(=O)c2ccc(C)cc2)[C@H]1C	10
Cc1cc(C)nc(N[C@H](c2ccc(F)cc2)c2cc(C)sc2NC(=O)c2ccccc2)n1	6
O=C(C[C@@H]1CCNC[C@@H]1Cc1cc(COc2ccccc2)on1)NCc1ccc(F)cc1	15
O=S(=O)(c1ccc(F)cc1)n1ccc(-c2cccc(OCc3ccc(Cl)cc3Cl)c2)n1	7
Cc1ccc2nc(-c3cccc(NC(=O)c4ccc5c(c4)OCO5)c3)oc2c1	-7

Source: ChEMBL document CHEMBL4888484, “Replenishing the malaria drug discovery pipeline: Screening and hit evaluation of the MMV Hit Generation Library 1 (HGL1) against asexual blood stage Plasmodium falciparum ,using a nano luciferase reporter read-out” (2022)
